These are yes or no findings as the source states them, for the method shown. In cells and extracts the contact can be indirect. Some results given as binding are weak or reduced against the parent protein; the word gives no strength. Each block holds one substance with its values, some of them ahead of it.
Assays:
[1] = molecular target: myc-PFKFB4 (6-phosphofructo-2-kinase/fructose-2,6-biphosphatase-4) (UniProt Q16877); assay: co-IP; 293T cells transfected with myc-PFKFB4 together with SRC-1, SRC-2 or SRC-3; immunoprecipitation with anti-Myc, western blot for SRC proteins; pCMV6-Myc as negative control
[2] = molecular target: PFKFB4 in A549 cells (co-IP with overexpressed SRC-2 WT or S487A) (UniProt Q16877); assay: co-IP; A549 cells overexpressing SRC-2 WT or SRC-2 S487A; co-IP of PFKFB4, SRC-2 detected
[3] = molecular target: PFKFB4, endogenous in A549 and NCI-H1975 cells (human (endogenous in A549 and NCI-H1975)) (UniProt Q16877); assay: co-IP; endogenous immunoprecipitation with anti-PFKFB4 antibody in A549 and NCI-H1975 cells, western blot; IgG as negative control
HA-SRC-2 = HA-SRC-2 (UniProt Q15596); assay: co-IP; 293T cells expressing HA-SRC-2 transfected with empty vector or myc-PFKFB4; immunoprecipitation with anti-HA, western blot for PFKFB4; pCMV6-HA as negative control

Sequences of proteins named here, by UniProt entry; tags and fusion partners are left off. A change or cut given only in a name is not applied to a line headed by its entry.
UniProt Q16877: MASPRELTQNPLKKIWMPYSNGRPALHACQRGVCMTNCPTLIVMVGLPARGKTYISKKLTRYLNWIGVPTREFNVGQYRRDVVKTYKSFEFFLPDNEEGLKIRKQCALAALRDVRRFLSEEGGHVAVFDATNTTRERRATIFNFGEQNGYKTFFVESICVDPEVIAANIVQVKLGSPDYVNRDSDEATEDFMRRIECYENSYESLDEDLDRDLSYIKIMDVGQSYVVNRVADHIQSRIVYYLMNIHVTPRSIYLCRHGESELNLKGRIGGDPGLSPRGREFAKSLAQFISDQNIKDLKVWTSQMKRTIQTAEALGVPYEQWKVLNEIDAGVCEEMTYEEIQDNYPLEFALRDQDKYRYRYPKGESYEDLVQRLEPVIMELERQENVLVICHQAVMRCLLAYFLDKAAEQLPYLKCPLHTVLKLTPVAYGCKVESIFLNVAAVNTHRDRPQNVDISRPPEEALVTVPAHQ
UniProt Q15596: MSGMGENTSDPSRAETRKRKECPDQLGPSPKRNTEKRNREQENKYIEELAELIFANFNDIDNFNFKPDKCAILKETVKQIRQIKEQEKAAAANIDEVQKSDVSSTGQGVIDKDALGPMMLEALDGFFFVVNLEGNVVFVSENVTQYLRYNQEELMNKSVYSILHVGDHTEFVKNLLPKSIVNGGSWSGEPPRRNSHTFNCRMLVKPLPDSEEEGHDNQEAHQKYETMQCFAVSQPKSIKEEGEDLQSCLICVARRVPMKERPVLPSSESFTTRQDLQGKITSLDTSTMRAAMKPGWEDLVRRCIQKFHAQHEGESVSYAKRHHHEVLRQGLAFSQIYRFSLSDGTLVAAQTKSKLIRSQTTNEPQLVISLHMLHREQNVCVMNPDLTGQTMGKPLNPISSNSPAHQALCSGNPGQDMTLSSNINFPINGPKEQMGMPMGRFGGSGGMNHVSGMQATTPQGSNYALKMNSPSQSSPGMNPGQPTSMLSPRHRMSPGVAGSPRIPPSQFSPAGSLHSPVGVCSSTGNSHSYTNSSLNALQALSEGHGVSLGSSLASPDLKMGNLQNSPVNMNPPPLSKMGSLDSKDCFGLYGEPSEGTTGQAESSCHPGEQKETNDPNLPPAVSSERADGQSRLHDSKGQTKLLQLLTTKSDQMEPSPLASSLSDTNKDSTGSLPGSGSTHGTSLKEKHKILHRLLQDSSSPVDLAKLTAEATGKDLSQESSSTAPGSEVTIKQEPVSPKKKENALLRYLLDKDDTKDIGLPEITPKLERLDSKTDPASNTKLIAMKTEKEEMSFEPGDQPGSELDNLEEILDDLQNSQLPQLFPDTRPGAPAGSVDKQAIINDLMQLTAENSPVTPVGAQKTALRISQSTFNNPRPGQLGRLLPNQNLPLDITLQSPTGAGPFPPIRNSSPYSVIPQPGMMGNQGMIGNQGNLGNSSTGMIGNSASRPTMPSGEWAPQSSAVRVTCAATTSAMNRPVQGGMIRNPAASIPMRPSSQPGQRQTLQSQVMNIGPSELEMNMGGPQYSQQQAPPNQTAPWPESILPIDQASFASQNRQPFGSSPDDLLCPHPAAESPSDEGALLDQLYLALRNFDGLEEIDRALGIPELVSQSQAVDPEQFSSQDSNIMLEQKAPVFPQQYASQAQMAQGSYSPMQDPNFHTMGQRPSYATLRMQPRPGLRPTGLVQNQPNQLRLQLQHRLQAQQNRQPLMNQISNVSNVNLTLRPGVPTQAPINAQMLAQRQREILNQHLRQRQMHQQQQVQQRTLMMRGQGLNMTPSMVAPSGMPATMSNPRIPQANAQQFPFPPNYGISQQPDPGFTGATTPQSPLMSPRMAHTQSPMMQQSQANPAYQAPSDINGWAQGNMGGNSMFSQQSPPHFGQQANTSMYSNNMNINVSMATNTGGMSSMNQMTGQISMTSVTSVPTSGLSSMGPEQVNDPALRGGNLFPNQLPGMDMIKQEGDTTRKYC
UniProt Q15788: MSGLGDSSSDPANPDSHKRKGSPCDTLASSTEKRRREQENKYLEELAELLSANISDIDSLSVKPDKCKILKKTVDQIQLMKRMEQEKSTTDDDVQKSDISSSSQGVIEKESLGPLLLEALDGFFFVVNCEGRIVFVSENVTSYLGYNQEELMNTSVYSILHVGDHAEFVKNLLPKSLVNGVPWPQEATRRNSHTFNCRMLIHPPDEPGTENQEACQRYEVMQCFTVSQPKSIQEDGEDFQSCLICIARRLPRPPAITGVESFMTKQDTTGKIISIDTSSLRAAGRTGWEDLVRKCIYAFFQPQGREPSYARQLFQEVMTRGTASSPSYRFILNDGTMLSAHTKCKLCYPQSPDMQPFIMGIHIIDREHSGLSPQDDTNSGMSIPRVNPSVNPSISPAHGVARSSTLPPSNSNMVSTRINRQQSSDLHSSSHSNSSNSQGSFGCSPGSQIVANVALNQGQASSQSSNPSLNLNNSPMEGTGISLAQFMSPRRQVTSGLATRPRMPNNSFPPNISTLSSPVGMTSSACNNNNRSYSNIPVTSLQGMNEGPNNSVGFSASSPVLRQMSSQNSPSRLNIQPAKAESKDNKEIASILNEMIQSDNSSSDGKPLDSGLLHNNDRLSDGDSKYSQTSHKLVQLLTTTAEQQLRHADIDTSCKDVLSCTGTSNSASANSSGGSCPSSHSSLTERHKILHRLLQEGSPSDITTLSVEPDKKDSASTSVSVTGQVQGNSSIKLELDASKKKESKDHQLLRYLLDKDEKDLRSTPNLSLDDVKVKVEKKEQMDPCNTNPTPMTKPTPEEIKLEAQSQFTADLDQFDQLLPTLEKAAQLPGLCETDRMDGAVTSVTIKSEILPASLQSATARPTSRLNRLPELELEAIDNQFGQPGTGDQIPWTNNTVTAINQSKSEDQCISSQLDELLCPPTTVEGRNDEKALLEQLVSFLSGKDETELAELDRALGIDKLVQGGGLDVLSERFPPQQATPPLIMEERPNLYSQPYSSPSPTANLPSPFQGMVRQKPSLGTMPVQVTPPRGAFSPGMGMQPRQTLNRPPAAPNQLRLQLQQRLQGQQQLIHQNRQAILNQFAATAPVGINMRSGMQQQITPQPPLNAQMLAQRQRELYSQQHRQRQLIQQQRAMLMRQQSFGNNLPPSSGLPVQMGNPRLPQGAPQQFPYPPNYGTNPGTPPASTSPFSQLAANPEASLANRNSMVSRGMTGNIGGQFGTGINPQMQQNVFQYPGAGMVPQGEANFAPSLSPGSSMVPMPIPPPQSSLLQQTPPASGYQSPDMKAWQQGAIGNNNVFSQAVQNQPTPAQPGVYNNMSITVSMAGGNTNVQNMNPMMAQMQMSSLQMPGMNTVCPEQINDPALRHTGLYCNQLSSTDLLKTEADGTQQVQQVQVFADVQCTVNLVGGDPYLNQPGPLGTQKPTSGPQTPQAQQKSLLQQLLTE

binding [1]: no binding
Substance: SRC-1 (from UniProt Q15788 1-1441)

binding [1]: binds
Substance: SRC-2 (steroid receptor coactivator-2), co-transfected with myc-PFKFB4 in 293T cells (from UniProt Q15596 1-1464)

binding [2]: binds
Substance: SRC-2 S487A, phosphor-deficient SRC-2 mutant, overexpressed in A549 cells (from UniProt Q15596 1-1464)

binding [2]: binds
Substance: SRC-2 WT overexpressed in A549 cells (from UniProt Q15596 1-1464)

binding [3]: binds
Substance: SRC-2 phosphorylated at Ser487, endogenous in A549 and NCI-H1975 cells (from UniProt Q15596 1-1464)

binding [3]: binds
Substance: SRC-2, endogenous in A549 and NCI-H1975 cells (from UniProt Q15596 1-1464)

binding (HA-SRC-2): binds
Substance: myc-PFKFB4 (6-phosphofructo-2-kinase/fructose-2,6-biphosphatase-4) (from UniProt Q16877 1-469) (enzyme)

— article PMC7887818
